The results in this text go back to the supplement of paper PMC11417369.

The other results are listed elsewhere or left out.

The test system of the assay is PfSIP2 AP2 domain 1 (GST-tagged). Briefly: gcPBM binding intensity (ln(normalized median fluorescence intensity)); higher = stronger DNA binding. The method in brief: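 Binding intensity values are the highest Masliner-normalised natural-log median intensity among replicate spots of either probe orientation. The binding step lasted 1 h in 1× PBS with 1% milk, 0.2 mg/ml BSA, 0.5% salmon testes DNA and 0.03% Triton X-100, using GST-tagged P. falciparum DNA-binding domains expressed in E. coli on an Agilent 4 × 180k array of primer-extended double-stranded 36-bp intergenic genomic probes plus negative controls. Alexa488 anti-GST antibody and a 488 nm scan detected bound protein.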
Take “TCGTAATAATATAAATGTACTTTATTAATTAAAAGA [XGTACX_site3416]”: the “gcPBM binding intensity (ln)” value stood at 7.08. To “ACATTGCACCCGTGCACACATAGAAAAATAATTCTT [CACACA_site409]” belongs 12.2; to “GTAGTCCAAAAAAAGCGTACACAGAAAAAAAAAAAA [XGTACX_site4273]”, 7.32; to ATAACAAAAATCCTTGTGCACTATTTTAATAGAGTC, 10. To “CATTATGATTAAATATGTACATATTATTATATAAAT [XGTACX_site2477]” belongs 6.92; to “TACATCTTACTACTTATAATATAATATAGTATGAAT [TGCATGCA_negctrl_site8]”, 6.99. To “ATATAATTTATGTGCACACACTCCTATTTTTAGCTT [CACACA_site50]” belongs 8.99; to “AAAAAGTAAAAGAAAGCACACACACCGGTATATATG [CACACA_site9281]”, 6.67; to “AAAAAAAATTTTATCTGTACACATTTTTTTCTTTTT [XGTACX_site4229]”, 6.78. For the sequence “AATAATAAAATAAAAGTGCATTAATTATAATTCTTT [GTGCAC_site9491]”, the “gcPBM binding intensity (ln)” value was 8.16.

Regarding “AATTATAATAATAATAGTACATAAGTATATAAATAA [XGTACX_site2400]”, the “gcPBM binding intensity (ln)” value is 7.08. To “TCTTTCTAAATCTTACAAATTACTAAAATATTTATA [CACACA_negctrl_site87]” belongs 7.04; to “GAGGAAAAAAAAAAAAGTACATTATATAAGAAAATT [XGTACX_site2610]”, 6.81. On to “TTAAATATTTATATTTGTACACAATCAATCATACAC [XGTACX_site5793]”, for which the “gcPBM binding intensity (ln)” value was determined as 7.54. Consider “AAAAAAAAAAAAAAAAGTACAAATTTAAAAATGTGT [XGTACX_site112]”, for which the “gcPBM binding intensity (ln)” value was determined as 7.78.

“TTGGTTTCTTGTTTTTGTACCCATAATTTGTAATAT [XGTACX_site1248]”: the “gcPBM binding intensity (ln)” value stood at 7.52. To “TGTTTTGTTATTTTTATTTATATAAATAAAGCTATA [GTGCAC_negctrl_site88]” belongs 7.27. To “CATAAATACAGTAACACACACAAAAAAATATGAATA [CACACA_site6066]” belongs 6.88; to “ATATATATATTATATGCACACTAATAAGACTATTTA [CACACA_site5880]”, 9.55. Turning to “TTGTTATGCATTGGTTGTACATAAGTATAAGTAATT [XGTACX_site5401]”, the “gcPBM binding intensity (ln)” value worked out at 7.16. To “ATATATATATTTTATTGTACAAAAAAAAAAAAAAAA [XGTACX_site6803]” belongs 8.39. Regarding TTTGTTTGTAAAATGTTGCACTTTCTTTTGCTGATA, the “gcPBM binding intensity (ln)” value was 8.49. To “ATAGGATTCTCAAAGTGTACTTGTCTACTGTAGTTT [XGTACX_site4202]” belongs 6.83; to “AAAAAAAAAATATGTACACACATATAAAATACATAA [CACACA_site6869]”, 7.2. With “CCATTATACACAATATGTACATATATATAATCATTT [XGTACX_site7942]”, the “gcPBM binding intensity (ln)” value was 7.17.

On to “ACATATATATATATTACACACACACTAATAAAATAA [CACACA_site7920]”, for which the “gcPBM binding intensity (ln)” value came to 7.24. To “TTTCAAGAATTATATAAACACACATACATACACCCA [CACACA_site8592]” belongs 7.31; to “ATAAGGATCAGACACAAACACACATATATATATATA [CACACA_site558]”, 9.31.

As to “ATAATTAATCCAAAATGTACTTACATTTTATATGAA [XGTACX_site8888]”, the “gcPBM binding intensity (ln)” value was 6.91.

Turning to “AAATAATTCATATGTTGTACAGTAATTAAATTTTCT [XGTACX_site6343]”, the “gcPBM binding intensity (ln)” value is 6.81. On to “TTTTATAATTTATCTAAAAAAAAATAAAATAAAATG [TGCATGCA_negctrl_site429]”, for which the “gcPBM binding intensity (ln)” value stood at 6.92.

Regarding “ATAAAATAAAATAAAAGTACATAAATATATATATAT [XGTACX_site6110]”, the “gcPBM binding intensity (ln)” value turned out to be 9.2. To “TTTTTTTTTCTTTGCACACAGATAACTTGAAATTTG [CACACA_site2185]” belongs 7.09; to “TCTTTCTATTAAACATGTACTTGTCTAAAGACATAA [XGTACX_site8564]”, 6.99. To “CGAATAAATATATGTAGTACATGTTGTAGATAATTT [XGTACX_site1218]” belongs 7.06; to “TATATATATTTAAATTGTACATATATTATTCATATG [XGTACX_site911]”, 7.22.

“AATAATATATATTACTGTACTAATATAAGGGACATC [XGTACX_site3744]”: the “gcPBM binding intensity (ln)” value turned out to be 7.33. To “TTATTTTCTACAAATTGTACATATTTTTTACTACTC [XGTACX_site1394]” belongs 7.04; to “ATTTATGAAAAAAATACATGCATGTCCATATAAATT [TGCATGCA_site505]”, 6.97; to “TTGTCAAAAATTACACACATAAATGAATAAATAAAT [XGTACX_negctrl_site541]”, 6.75. As for “ATATATATATATATATATATAATAAAAGATCATTTA [XGTACX_negctrl_site371]”, the “gcPBM binding intensity (ln)” value is 9.61.

For “ATAATAAAAAGAAAAAGTACAAATGATTATGTTTGA [XGTACX_site3615]”, the “gcPBM binding intensity (ln)” value was determined as 6.97. To “CAAGTATTATATTGCGCATGCAAAGAAGGACACAAA [TGCATGCA_site1024]” belongs 7.51.

For the sequence “TTATCTAGTACATACATACACACAACCATGTTATGA [CACACA_site3988]”, the “gcPBM binding intensity (ln)” value was determined as 7.
